From the BET-seq Pho4 binding data (Le et al. 2018)
This is one part of the list. The energies were worked out here from pooled read counts, against the library average; single values are noisy.

Target: T1, Pho4 (S. cerevisiae) (UniProt P07270)
T1 sequence: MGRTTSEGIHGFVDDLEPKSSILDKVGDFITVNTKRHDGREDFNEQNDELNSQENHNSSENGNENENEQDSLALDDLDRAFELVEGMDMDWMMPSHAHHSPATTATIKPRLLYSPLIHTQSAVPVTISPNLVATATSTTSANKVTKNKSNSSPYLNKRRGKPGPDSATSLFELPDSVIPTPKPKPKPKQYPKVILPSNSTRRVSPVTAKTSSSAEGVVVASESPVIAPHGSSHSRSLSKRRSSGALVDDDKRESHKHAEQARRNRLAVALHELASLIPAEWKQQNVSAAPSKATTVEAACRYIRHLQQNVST
Assay: relative binding free energy (BET-seq); higher = weaker binding
Conditions: reference: library average

Relative binding free energy, -0.19 kcal/mol:
CTCTGCACGTGGGGGG

Relative binding free energy, 0.02 kcal/mol:
CTTGTCACGTGGTGAT

Relative binding free energy, 0.26 kcal/mol:
ATAGCCACGTGAGGTT, TCGAACACGTGGCTTG, TGGTACACGTGATTGA, TTGGTCACGTGACAAT, TTTGTCACGTGAATCT

Relative binding free energy, 0.23 kcal/mol:
AGTATCACGTGTGGGG, ATGGTCACGTGAGTTC, GTTGGCACGTGAATCG

Relative binding free energy, 0.34 kcal/mol:
AGATTCACGTGTGGGA

Relative binding free energy, -0.12 kcal/mol:
CGGGCCACGTGTTGTG, CCTGGCACGTGTGGTA, TTAGGCACGTGTTAGG, GAAAGCACGTGTGAGG, TGCTGCACGTGGTTTA, GGATGCACGTGGCGGT, TTGGCCACGTGTTGGA

Relative binding free energy, -0.09 kcal/mol:
CTCGGCACGTGTGGTA, TATAGCACGTGTGATG

Relative binding free energy, 0.38 kcal/mol:
AGGTTCACGTGCGACG

Relative binding free energy, 0.49 kcal/mol:
GGGTTCACGTGATGAT

Relative binding free energy, 0.28 kcal/mol:
ACTATCACGTGAGTGG, ATTTTCACGTGCGGCG

Relative binding free energy, 0.55 kcal/mol:
GAATTCACGTGAGGAT

Relative binding free energy, -0.13 kcal/mol:
GTGTACACGTGGGGGC, TGTACCACGTGTGTAG, AGTAGCACGTGTTAGA, TTTCGCACGTGCGTTG

Relative binding free energy, 0.25 kcal/mol:
GGAGTCACGTGTGATA

Relative binding free energy, -0.1 kcal/mol:
GAAGGCACGTGGGGAT, GGTACCACGTGGGCAG, AGTGACACGTGCGTGG

Relative binding free energy, -0.05 kcal/mol:
TGAAGCACGTGTGTTA, TACAGCACGTGTGGGC, TTGAGCACGTGTTGTG, ATAAACACGTGCGGGT, AGCGTCACGTGGGTCG, TATGCCACGTGTTATG

Relative binding free energy, 0.46 kcal/mol:
CATTGCACGTGAGCAG

Relative binding free energy, 0.27 kcal/mol:
AGTTTCACGTGAGTTA, AGGTTCACGTGAGTCT, CTTTACACGTGTGAGT

Relative binding free energy, -0.2 kcal/mol:
ATCTGCACGTGGTATA

Relative binding free energy, -0.01 kcal/mol:
AGGTGCACGTGGAAGA, TATGACACGTGCATGG, GGGGCCACGTGGATGT, TCTTGCACGTGGTTAG, GTGAACACGTGGGAGT

Relative binding free energy, -0.18 kcal/mol:
GGTGGCACGTGCTTAG, TATGGCACGTGCTCGG, AGTGCCACGTGGTGGA

Relative binding free energy, -0.27 kcal/mol:
GGGCCCACGTGGGGGT

Relative binding free energy, 0.37 kcal/mol:
GTTTTCACGTGTGTGC, TGATTCACGTGATGGA, TGTCTCACGTGAATGG

Relative binding free energy, 0.3 kcal/mol:
GGGTGCACGTGAGCAG, TTTTTCACGTGATCGT, AGGTTCACGTGGTTGG

Relative binding free energy, 0.09 kcal/mol:
ACGGTCACGTGTGTAT, GAATACACGTGTTTTT

Relative binding free energy, -0.02 kcal/mol:
TGTTGCACGTGCGGCT, GGTAGCACGTGTGCGA, TATTCCACGTGGGGGC, ACTTGCACGTGGATGG, TGCTACACGTGGGGTT

Relative binding free energy, 0.21 kcal/mol:
TTGGGCACGTGAATCT

Relative binding free energy, 0.43 kcal/mol:
TAGATCACGTGATGTC

Relative binding free energy, -0.04 kcal/mol:
GATGGCACGTGGGATT, GTGGGCACGTGGCTGG, AATGTCACGTGGGATG, GTGACCACGTGTGTTT, GGTGCCACGTGTGGCG, GGAAGCACGTGGCGTT, TTAAGCACGTGTCTAT, GATGCCACGTGGTGGT, GTCGGCACGTGGGAAA

Relative binding free energy, 0.36 kcal/mol:
TGGATCACGTGAAGCG, CGGGTCACGTGGAAGT

Relative binding free energy, 0.14 kcal/mol:
GCATTCACGTGGGGGC, TCTTACACGTGTGCTG, ATTGGCACGTGAATTT

Relative binding free energy, 0.04 kcal/mol:
GAGAACACGTGCTGGG, TATTCCACGTGGGCGT

Relative binding free energy, 0.18 kcal/mol:
CTTTTCACGTGTTAAA, GTTATCACGTGTAGTA, CGGAACACGTGTGGAT, GTTCTCACGTGGGGTT, TCTTGCACGTGAGGCG, TGGTTCACGTGTGCAT

Relative binding free energy, 0.2 kcal/mol:
TCGTTCACGTGGTAAG, TCGGGCACGTGAGGTC, GCGGTCACGTGGGATT, TTGTACACGTGATTAA, TTTCTCACGTGTTGAA, AGGCGCACGTGAGAGT, TGGGACACGTGTGATA, TGATGCACGTGAGGCG

Relative binding free energy, -0.22 kcal/mol:
GCAAGCACGTGGGTTT, ATAGGCACGTGGACGG

Relative binding free energy, 0.08 kcal/mol:
ATCATCACGTGTGGTG, GGCTGCACGTGGTTGC, TTCGACACGTGGTTGG, GGTGTCACGTGGTCGA, TAGGACACGTGGCGGT, AATATCACGTGTTTTT, CTGGGCACGTGTAGGA

Relative binding free energy, -0.17 kcal/mol:
AGTGGCACGTGTTTCG, ATGCGCACGTGGTTTG, CTTTGCACGTGGTGAG, CGTGGCACGTGGGAAG, ATAGACACGTGGTTAG

Relative binding free energy, 0.06 kcal/mol:
TAGTACACGTGGATGA, TGTGTCACGTGTTATC, TCTGTCACGTGGCGTT

Relative binding free energy, 0.03 kcal/mol:
GTGTGCACGTGTTTGG, TAGGACACGTGGTGGT, TGTGTCACGTGGCGGT, TGGTGCACGTGAGCAG, ATTGACACGTGTGCTG, TTGTCCACGTGTTTAG, GTGTGCACGTGTGGTT, TTCTACACGTGGTATG

Relative binding free energy, 0.13 kcal/mol:
GTGTTCACGTGTCATA

Relative binding free energy, 0.48 kcal/mol:
TGTTTCACGTGAGAGG

Relative binding free energy, 0.01 kcal/mol:
GCTAGCACGTGGTTTT, GGATGCACGTGTTAAG, GGGGACACGTGCGGCG

Relative binding free energy, 0.07 kcal/mol:
AATAGCACGTGTGTTT, TGCGTCACGTGTGTCT, GTATCCACGTGGGTAA, ACTATCACGTGTGTGG, GTTCACACGTGGATTG, TGAAACACGTGGAGTT, TTAAACACGTGTTGGT, GAAAGCACGTGTTGGG, TTATACACGTGTTACA

Relative binding free energy, -0.15 kcal/mol:
CGTAGCACGTGGAGGG, TGTGACACGTGGGGGT, TAACGCACGTGGCGGT

Relative binding free energy, 0.19 kcal/mol:
GAGGTCACGTGCTTTA, TGGTTCACGTGTATTG, GATGCCACGTGAGGGG, GTGATCACGTGTATGT

Relative binding free energy, -0.32 kcal/mol:
ATGAGCACGTGTTAGG

Relative binding free energy, -0.23 kcal/mol:
TCAAGCACGTGGGGTA, AGGGGCACGTGTCCTG

Relative binding free energy, 0.05 kcal/mol:
TATCACACGTGTATGG, TTGACCACGTGTGGGG

Relative binding free energy, 0.16 kcal/mol:
TCATTCACGTGGGATG, GTCGTCACGTGTTAAG, TGTGGCACGTGTAAAG, GGCATCACGTGTTGTG

Relative binding free energy, -0.03 kcal/mol:
GGTCCCACGTGTGGTT, GGTTGCACGTGGGTTG, GGACGCACGTGGCGAG

Relative binding free energy, 0.1 kcal/mol:
AGTAACACGTGAGGGA, AGCAACACGTGGTGAG, GTTAACACGTGCGGCG, TGCGTCACGTGTTTCA

Relative binding free energy, 0.35 kcal/mol:
GGCAGCACGTGAGGTG

Relative binding free energy, 0.15 kcal/mol:
GAAGGCACGTGAAGGG, TCGTCCACGTGAGGGG, GGCTACACGTGGTCGG

Relative binding free energy, 0.51 kcal/mol:
GGGCTCACGTGAGGCG

Relative binding free energy, 0.29 kcal/mol:
TGGTTCACGTGTGAGT, GGGTCCACGTGAAGGG, GGCTTCACGTGGGATA

Relative binding free energy, 0.32 kcal/mol:
GGTTTCACGTGGTGGA, ACGTTCACGTGTAGTT, GGGTTCACGTGAATGT

Relative binding free energy, -0.16 kcal/mol:
ACAAGCACGTGGGGTG, ACGTGCACGTGGGGAT, CTGTGCACGTGTGGTC, CGAAGCACGTGGGCTG, ATAAGCACGTGGTATA

Relative binding free energy, -0.14 kcal/mol:
TTATACACGTGGTGTA, TCGTACACGTGGGGTA, GTACACACGTGGGTGG, TTTGGCACGTGTCTCG, TTGTACACGTGGGCAG, AGCGGCACGTGGTTGA

Relative binding free energy, 0.11 kcal/mol:
TCTATCACGTGATTGT, AGTCTCACGTGCGTTG, CTTTGCACGTGGATTG

Relative binding free energy, 0.17 kcal/mol:
GTTCTCACGTGGGGGG, CGCGTCACGTGTGGAG

Relative binding free energy, 0.24 kcal/mol:
AGCATCACGTGTGGTG, GTTATCACGTGCTTTG, TTTTTCACGTGCTCAT, ATAATCACGTGTTGGG, AGGGACACGTGAGTTA, ATTTTCACGTGTAGTA, GCCTTCACGTGGTGTT

Relative binding free energy, 0 kcal/mol:
GTGACCACGTGGTGAG, CATTGCACGTGGTCTT, TCTTGCACGTGTCTTG

Relative binding free energy, -0.11 kcal/mol:
GGTCCCACGTGTTGTT, TAGGACACGTGGGAAT, GTGAACACGTGCGTTT, GGTAACACGTGGGGTA, TAAGTCACGTGCGTGG, TCTATCACGTGGGTTA, TCGGTCACGTGGTCTG

Relative binding free energy, -0.24 kcal/mol:
CATGGCACGTGGGGGG

Relative binding free energy, 0.12 kcal/mol:
CTTGACACGTGAAGTG, AGTGTCACGTGTGATG, ATTAGCACGTGAGTCG, TGTGACACGTGTAATT, TTCTGCACGTGATTGG, AATGGCACGTGAATAT

Relative binding free energy, -0.29 kcal/mol:
ACAGGCACGTGGGGTG

Relative binding free energy, 0.33 kcal/mol:
GTGTTCACGTGAAATG

Relative binding free energy, -0.06 kcal/mol:
CTGGTCACGTGTGTCG, GGTGTCACGTGCTGCT, TATTGCACGTGGTATG, CTCGACACGTGGGGTA, TAGGGCACGTGTTAGA, TTGTGCACGTGTATGT

Relative binding free energy, -0.08 kcal/mol:
TGGGGCACGTGGTTCG, ACTAACACGTGGGTGG, GTTACCACGTGGGGAT

Relative binding free energy, 0.5 kcal/mol:
ATCTTCACGTGATTTG

Relative binding free energy, -0.07 kcal/mol:
CGTGTCACGTGGGTTT, GCTAGCACGTGTTGTT, GGATGCACGTGCTGGT

Relative binding free energy, -0.21 kcal/mol:
ACTGGCACGTGGTTAG, ATATGCACGTGGCTTT, TACTGCACGTGGGGTA, TTTAGCACGTGCCTGG
